# Source: PMC6919601, “Identification of Plasmodium dipeptidyl aminopeptidase allosteric inhibitors by high throughput screening” (PLoS ONE, 2019)
# Hit rate of the full screen: of about 110,000 compounds, about 230 (0.21%) showed an effect of 50% or more. The list shows a part of the results.
# Molecular target: DPAP1 (Plasmodium falciparum, UniProt Q8IIJ9)
# Experiment: primary screen, percent inhibition; read by cleavage of a fluorogenic dipeptide substrate; higher = more effect of the substance
# Parameters: species or system P. falciparum D10 trophozoite lysates; single well
# 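Note: 30 min substrate incubation versus DMSO and 10 µM JCP410 controls.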
# Chain of DPAP1 (Q8IIJ9 whole entry, looked up): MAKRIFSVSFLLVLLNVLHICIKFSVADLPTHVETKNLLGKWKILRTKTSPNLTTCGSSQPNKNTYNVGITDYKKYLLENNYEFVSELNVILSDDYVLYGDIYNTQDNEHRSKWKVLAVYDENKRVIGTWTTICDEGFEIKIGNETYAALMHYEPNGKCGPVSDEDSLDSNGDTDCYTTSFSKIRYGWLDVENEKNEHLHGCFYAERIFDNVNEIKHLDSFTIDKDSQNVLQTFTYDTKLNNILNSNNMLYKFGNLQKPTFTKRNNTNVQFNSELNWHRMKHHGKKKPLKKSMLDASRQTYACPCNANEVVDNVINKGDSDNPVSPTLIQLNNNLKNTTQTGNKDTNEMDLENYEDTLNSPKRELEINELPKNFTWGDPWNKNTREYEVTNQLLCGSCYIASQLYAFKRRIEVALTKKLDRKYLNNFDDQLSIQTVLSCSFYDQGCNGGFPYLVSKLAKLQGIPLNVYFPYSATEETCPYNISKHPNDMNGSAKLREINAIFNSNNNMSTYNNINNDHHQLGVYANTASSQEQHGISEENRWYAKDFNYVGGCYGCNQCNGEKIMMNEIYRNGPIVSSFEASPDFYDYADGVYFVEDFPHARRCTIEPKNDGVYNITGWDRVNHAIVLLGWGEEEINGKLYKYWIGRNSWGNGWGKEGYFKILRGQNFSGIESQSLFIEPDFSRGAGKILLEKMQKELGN
row,Structure (SMILES),% Inhibition @ 10 uM [%]
1,CC(=O)Nc1ccc(S(=O)(=O)Nc2c(C)cccc2C(C)C)cc1,-1.61
2,CC1CCCC(N2CCCN(C)CC2)C1 (stereo not shown),2.1
3,O=C1c2ccccc2C(=O)C1(c1ccccc1)N1CCc2ccccc2C1,4.36
4,COc1ccccc1NCc1c(C#N)c2ccccc2n1C,-0.864
5,O=C1c2cc(S(=O)(=O)NCCCO)ccc2-c2ccc(S(=O)(=O)NCCCO)cc21,-1.47
6,CCOc1ccc(Br)cc1C1C(C(C)=O)=C(C)Nc2nnnn21 (stereo not shown),-5.41
7,Cc1ccc(-c2c(NCCc3ccc(Cl)cc3)c(=O)c2=O)cc1,1.97
8,O=C1CCCC(O)=C1Sc1ccccc1C(=O)O,5.07
9,Cc1ccc(C(=O)Nc2cccc(OCC(=O)c3ccccc3)c2)cc1,-1.11
10,Cc1ccc(-c2ccc(/C=C3\NC(=O)NC3=O)o2)c(Br)c1,4.74
11,Cc1cc(C)nc(/N=C(\N)Nc2ccccc2O)n1,0.727
12,O=C(NCc1ccc(Cl)cc1Cl)C(=O)NC1CCCCC1,6.17
13,O=C(NCc1ccc(F)cc1)c1nc(O)c2nnn(Cc3ccc4c(c3)OCO4)c2n1,-5.51
14,O=C1/C(=C\c2cccnc2)S(=O)(=O)c2ccccc21,-0.105
15,CN(C)c1ccc(CN2CCN(c3ccccc3)CC2)cc1,-3.56
16,COc1ccc(N2C(=O)CC(N3CCN(C(=O)c4ccccc4F)CC3)C2=O)cc1 (stereo not shown),-3.04
17,CCCS(=O)(=O)N1CCC(C(=O)NCc2ccccc2Cl)CC1,-1.79
18,COc1ccccc1CNC(=O)Cn1ncn2c(cc3ccccc32)c1=O,1.68
19,Cc1onc(-c2c(Cl)cccc2Cl)c1C(=O)NCC1CCCO1 (stereo not shown),0.177
20,COc1ccc(N(CC(=O)Nc2ccc(NC(C)=O)cc2)S(=O)(=O)c2ccccc2)cc1Cl,0.889
21,CCOC(=O)c1sc(NC(=O)c2ccc(S(=O)(=O)N3CC(C)CC(C)C3)cc2)nc1C (stereo not shown),6.23
22,Cc1cc(C(=O)NC2CCCCC2)on1,-5.25
23,CC(C)=CCc1c(O)c2ccccc2n(C)c1=O,-0.988
24,c1nc(NCCc2ccsc2)c2nc3n(c2n1)CCCCC3,-6.33
25,O=C(NC1CC1)c1ccc2nc(-c3ccccc3)c(-c3ccccc3)nc2c1,-0.945

row,Structure (SMILES),% Inhibition @ 10 uM [%]
1,CCN1C(=O)/C(=C/c2ccc(Cl)c(Cl)c2)N=C1SCC(=O)NCc1ccco1,2.68
2,CCOC(=O)c1sc(NC(=O)CSC2=NC(=O)C(Cc3ccccc3)C(=O)N2)nc1C (stereo not shown),-3.14
3,CCOC(=O)c1[nH]nc(C(=O)c2ccccc2)c1-c1ccccc1,2.38
4,COc1ccc2cc(S(=O)(=O)c3ccc(C(C)C)cc3)c(=O)oc2c1,3.75
5,C=CC1CN2CCC1CC2[C@@H](OC(=O)CCC(=O)O)c1ccnc2ccccc12 (stereo partly shown),4.54
6,O=C(CSc1nc2c(sc3ccccc32)c(=O)n1CCO)NCC1CCCO1 (stereo not shown),2.89
7,CN1CCC/C1=C/C(=O)c1ccc([N+](=O)[O-])cc1,-6.07
8,COc1ccccc1NS(=O)(=O)c1cccc(C(=O)Nc2ccc(Br)cc2)c1,-1.04
9,Cc1cccc(NC(=O)c2c(O)nc3c(c2O)CCCC3)n1,-0.458
10,Cc1onc(-c2ccccc2Cl)c1C(=O)N1CCCC1,0.916
11,CCOC(=O)N1CCC(N2Cc3cccc(C(=O)O)c3C2=O)CC1,0.494
12,O=c1/c(=C/c2cccnc2)sc2nc(-c3ccc(Cl)cc3Cl)nn12,-1.17
13,CCOC(=O)c1cc(S(=O)(=O)NC(CC)c2cccs2)cn1C (stereo not shown),0.655
14,O=C1C2C(C(=O)N1c1ccc(Oc3ccc(Br)cc3)cc1)C1(Br)c3ccccc3C2(Br)c2ccccc21 (stereo not shown),-4.4
15,CC(=O)N(C)c1ccc(NC(=O)C(C)Oc2ccc(C)cc2)cc1 (stereo not shown),-1.94
16,Clc1ccc(OCCCCCN2CCNCC2)c(Cl)c1,2.74
17,Cc1nnc(NC(=O)C2CCCCC2)s1,-2.81
18,Cc1nccn1S(=O)(=O)c1ccc(Cl)cc1,-6.08
19,CC(=O)Nc1ccc(NC(=O)Cn2ncc3c4ccccc4nc-3c2O)cn1,-6.37
20,NC(=O)c1c(NC(=O)C2CCCCC2C(=O)O)sc2c1CCCCC2 (stereo not shown),2.92
21,Cc1nn(C)cc1CN(C)C(=O)c1nn2c(C(F)(F)F)cc(-c3cccs3)nc2c1Cl,-1.98
22,CC1CN(C(=O)c2ccc(NS(=O)(=O)c3ccc(C(C)(C)C)cc3)cc2)CC(C)O1 (stereo not shown),-3.41
23,CC(CNC(=O)COCc1cc(-c2ccc(F)cc2)on1)c1ccccc1 (stereo not shown),1.08
24,Cc1cc(Cl)ccc1OC(C)C(=O)n1cnc2ccccc21 (stereo not shown),-6.7
25,COc1ccc(S(=O)(=O)c2cc3cc(Br)cc(Br)c3oc2=O)cc1,2.12

row,Structure (SMILES),% Inhibition @ 10 uM [%]
1,CC1(C)C(N2CCOCC2)C(c2ccccc2)S1(=O)=O (stereo not shown),-0.999
2,Cc1cccc(NCc2n[nH]c(SCC(=O)Nc3ccc(Br)cc3)n2)c1,2.36
3,CC1(C)CC(=O)C2=C(C1)N(CCc1ccccc1)C(=O)NC2(C(F)(F)F)C(F)(F)F,0.221
4,Cc1cc(C)cc(C(=O)N(Cc2nc(-c3ccccc3)no2)C(C)C)c1,-6.56
5,CCCc1cc(N2CCN(C3CCCCC3)CC2)n2cnnc2n1,3.27
6,O=C(NC1CC1)c1ccc(CS(=O)(=O)Cc2ccc(Cl)cc2)o1,2.05
7,COc1ccc(-c2c3c(nc4ncnn24)-c2ccccc2C3=O)cc1,1.35
8,O=C(c1ccccc1)N1c2ccccc2N=C2CC(c3ccco3)CC(O)=C2C1c1ccco1 (stereo not shown),-2.45
9,Cc1ccc(CS(=O)(=O)CCC(=O)N2CCC3(CC2)OCCO3)cc1,-2.99
10,COc1ccc(S(=O)(=O)N2CCC(C)CC2)cc1OC,-4.18
11,c1ccc2oc(CCCCc3nc4ccccc4o3)nc2c1,4.08
12,c1ccc2nc(-c3ccc4c(c3)OCO4)ccc2c1,0.823
13,COc1cc(OC)c(C2CC(=O)Nc3c2ccc2ccccc32)cc1OC (stereo not shown),3.35
14,COc1ccc(C(=O)C23CN4CN(CN(C4)C2)C3)cc1,-2.21
15,O=C(CC(c1ccco1)S(=O)(=O)c1ccccc1)c1ccc(Cl)cc1 (stereo not shown),2.05
16,O=C1CC(c2ccccc2Cl)c2cc3c(cc2N1)OCCO3 (stereo not shown),-17.9
17,CCS(=O)(=O)N1CCCC(C(=O)NCc2ccccc2Cl)C1 (stereo not shown),3.24
18,O=C1C2C(C(=O)N1c1ccc(Cl)c(Cl)c1)C1C=CC2C12CC2 (stereo not shown),5.05
19,Cc1ccc(-c2csc(/C(C#N)=C/c3cccnc3)n2)c(C)c1,1.38
20,Clc1cccc(-n2cc(-c3ccccc3)c3c(N4CCC5(CC4)OCCO5)ncnc32)c1,2.56
21,Cc1ccnc(NC(=O)C(C)c2ccc(CC(C)C)cc2)n1 (stereo not shown),0.324
22,Cc1cccc(C)c1OCc1nc2c3cnn(-c4ccc(Cl)cc4)c3ncn2n1,-4.64
23,CC(=O)Nc1sc2c(c1CN1CCN(c3ccccn3)CC1)CCCC2,-5.69
24,CN1CCC(NCCc2ccccc2)CC1,-1.81
25,N#CC(NC(=O)[C@@H](O)CS(=O)(=O)Cc1ccccc1)c1cccs1 (stereo partly shown),-3.49

row,Structure (SMILES),% Inhibition @ 10 uM [%]
1,CCOc1ccccc1NC(=O)CN(c1cc(Cl)ccc1C)S(C)(=O)=O,-10
2,COC(=O)c1c(C)oc2ccc(O)c(CN3CCN(C)CC3)c12,0.276
3,COc1cc(CN2CCC(Cc3ccccc3)CC2)cc(Br)c1O,4.81
4,Cc1ccc(/C=C2/N=C(c3cccc4ccccc34)OC2=O)cc1,8.21
5,Cc1cc(NC(=O)C2CCCCC2)cc(C)c1O,4.57
6,Cc1ccccc1NC(=O)CCS(=O)(=O)c1ccc(Cl)cc1,-9.4
7,CCCCn1c(=O)c(C(=O)Nc2ccc(Cl)cc2)c(O)c2ccccc21,-2.85
8,CC1CCCCN1CCCNC(=O)C1CCN(S(=O)(=O)N2CCC3(CC2)OCCO3)CC1 (stereo not shown),1.97
9,N#CC1=C(N)OC2=C(C(=O)c3ccccc3C2=O)C1c1ccc(-c2ccccc2)cc1 (stereo not shown),4.51
10,CC1=CN2C(=NC(C(F)(F)F)(C(F)(F)F)N=C2c2ccco2)C=C1,-3.53
11,CN(CCNC(=O)C1CCN(c2nnc(-n3cccc3)s2)CC1)C1CCCCC1,-4.04
12,COc1nc(N)nc(N(C)C(=O)c2ccccc2)n1,-0.0953
13,CCN(c1ccccc1)S(=O)(=O)c1ccc(OC)cc1,-4.03
14,C=C(C)CNC(=S)Nc1sc2c(c1C(=O)OCC)CCCC2,1.05
15,CCN(CC)CCCNC(=O)c1c(C)oc2ncn(C)c(=O)c12,2.74
16,CC(C)C[C@H](NC(=O)c1ccc(B(O)O)cc1)C(=O)NCC#N,-1.82
17,CNC(=O)CCCc1nc(-c2ccc(OC)cc2)no1,0.558
18,O=C(NC(=O)c1ccc(Cl)cc1)Nc1ccccc1OC(F)F,3.3
19,O=C(COCc1cc(-c2ccco2)on1)NCc1ccc(F)cc1,-0.769
20,COc1cc(/C=C2\SC(N3CCOCC3)=NC2=O)ccc1O,-5.63
21,CCOc1ccc(C2CC(=O)c3c([nH]c(C(=O)OC)c3C)C2)cc1OC (stereo not shown),1.16
22,NS(=O)(=O)c1ccc(N2CCC(c3ccc(Cl)cc3)=N2)cc1,1.38
23,CCCCN1C(=O)C2Cc3c([nH]c4ccccc34)C(c3cccc(O)c3)N2C1=O (stereo not shown),7.92
24,C(CNC1C2CC3CC(C2)CC1C3)CN1CCOCC1 (stereo not shown),-4.01
25,CC(C)(C)NC(=O)CN(Cc1c(F)cccc1Cl)S(=O)(=O)c1ccc(Cl)cc1,-3.45
